Starred links: 1 amine or outer side, 2 acyl side, 3 side chain; linkers in the order of their positions; H or OH if unused. Non-standard residues stand in square brackets, D forms with d. Residues, ends and D or L forms follow the SMILES beside them. ξ: configuration not given here. *: point of attachment. X7 = COc1ccc(C(=O)N[C@@H]2C[C@@H](C(=O)[*:2])N([*:1])C2)cc1; X5 = O=C(N[C@@H]1C[C@@H](C(=O)[*:2])N([*:1])C1)OCc1ccccc1; Pro(4,4-SCH2CH2S) = O=C(O)[C@@H]1CC2(CN1)SCCS2; Tiq1c(1S) = O=C(O)[C@H]1NCCc2ccccc21; X1 = CCC[C@H](N[*:1])C(=O)C(=O)[*:2]; N(CH2CH2COOH)Gly = O=C(O)CCNCC(=O)O; X3 = CCCC(N[*:1])C(=O)C(=O)[*:2]; X10 = CCC[C@H](N*)C(=O)C(N)=O; Cha = N[CH](CC1CCCCC1)C(=O)O; Chg = N[CH](C(=O)O)C1CCCCC1; Thz = O=C(O)[C@@H]1CSCN1; ξE = NC(CCC(=O)O)C(=O)O; ξV = CC(C)C(N)C(=O)O; OtBu = CC(C)(C)O*; NHAllyl = C=CCN*; tBu = CC(C)(C)*; OAll = C=CCO*; NHPr = CCCN*

The experiment deals with Recombinant heterodimeric HCV NS3/NS4A protease (strain 1a) (Hepatitis C virus genotype 1a, UniProt P27958). In words: biochemical. Particulars: Ki* Range.
With `CCC[C@H](NC(=O)[C@@H]1CSCN1C(=O)[C@@H](NC(=O)[C@@H](NC(=O)[C@H](CCC(=O)O)NC(=O)[C@H](CCC(=O)O)NC(C)=O)C(C)C)C(C)C)C(=O)C(=O)NCC(=O)O` [Ac-EEVV-thioP-nV-(CO)-G-OH] (Ac-EEVV[Thz][X1]G-OH), the Ki lay within 1 to 100 nM. With `C=CCNC(=O)C(=O)C(CCC)NC(=O)[C@@H]1CSCN1C(=O)C(NC(=O)C(NC(=O)C(CCC(=O)OC(C)(C)C)NC(=O)C(CCC(=O)OC(C)(C)C)NC(C)=O)C(C)C)C(C)C` (stereo partly drawn) [Compound 51] (Ac-[ξE](OtBu)[ξE](OtBu)[ξV][ξV][Thz][X3]-NHAllyl) the figure was 101 to 999 nM; with `CCC[C@H](NC(=O)[C@H](Cc1ccccc1)NC(=O)[C@@H](NC(=O)[C@@H](NC(=O)[C@H](CCC(=O)O)NC(=O)[C@H](CCC(=O)O)NC(C)=O)C(C)C)C(C)C)C(=O)C(=O)NCC(=O)O` [Ac-EEVVF-nV-(CO)-G-OH] (Ac-EEVVF[X1]G-OH), 1 to 100 nM. As for `C=CCNC(=O)CNC(=O)C(=O)[C@H](CCC)NC(=O)[C@@H]1CCCN1C(=O)[C@@H](NC(=O)[C@@H](NC(=O)[C@H](CCC(=O)O)NC(=O)[C@H](CCC(=O)O)NC(C)=O)C(C)C)C(C)C` [Compound 6] (Ac-EEVVP[X1]G-NHAllyl), the Ki lay in the range of 1000 to 10000 nM.

Regarding `CCC[C@H](NC(=O)CN(CCC(=O)O)C(=O)[C@@H](NC(=O)[C@@H](NC(=O)[C@H](CCC(=O)O)NC(=O)[C@H](CCC(=O)O)NC(C)=O)C(C)C)C(C)C)C(=O)C(=O)NCC(=O)O` [Ac-EEVV-G(N-Et(CO2H))-nV-(CO)-G-OH] (Ac-EEVV[N(CH2CH2COOH)Gly][X1]G-OH), the Ki fell in the range of 1 to 100 nM. With `CCC[C@H](NC(=O)[C@H](CC(=O)O)NC(=O)[C@@H](NC(=O)[C@@H](NC(=O)[C@H](CCC(=O)O)NC(=O)[C@H](CCC(=O)O)NC(C)=O)C(C)C)C(C)C)C(=O)C(=O)NCC(=O)O` [Ac-EEVVD-nV-(CO)-G-OH] (Ac-EEVVD[X1]G-OH) the figure was 101 to 999 nM.

`CCC[C@H](NC(=O)[C@@H]1C[C@@H](NC(=O)c2ccc(OC)cc2)CN1C(=O)[C@@H](NC(=O)[C@@H](NC(=O)[C@H](CCC(=O)O)NC(=O)[C@H](CCC(=O)O)NC(C)=O)C(C)C)C(C)C)C(=O)C(=O)NCC(=O)O` [Ac-EEVV-P(4t-NHBzl(4-OMe))-nV-(CO)-G-OH] (Ac-EEVV[X7][X1]G-OH): the Ki was 1 to 100 nM. For `CCC[C@H](NC(=O)[C@@H]1CCCN1C(=O)[C@@H](NC(=O)[C@@H](NC(=O)[C@H](CCC(=O)OC(C)(C)C)NC(=O)[C@H](CCC(=O)OC(C)(C)C)NC(C)=O)C(C)C)C(C)C)C(=O)C(=O)N[C@@H](COC(C)(C)C)C(=O)O` [Compound 31] (Ac-E(OtBu)E(OtBu)VVP[X1]S(tBu)-OH), the Ki lay within 101 to 999 nM.

Turning to `C=CCOC(=O)CNC(=O)C(=O)C(CCC)NC(=O)[C@@H]1C[C@@H](NC(=O)OCc2ccccc2)CN1C(=O)C(NC(=O)C(NC(=O)C(CCC(=O)O)NC(=O)C(CCC(=O)O)NC(C)=O)C(C)C)C(C)C` (stereo partly drawn) [Compound 39] (Ac-[ξE][ξE][ξV][ξV][X5][X3]G-OAll), the inhibition constant Ki lay in the range of 1 to 100 nM.

`CCCC(NC(=O)[C@@H]1c2ccccc2CCN1C(=O)[C@@H](NC(=O)[C@@H](NC(=O)[C@H](CCC(=O)O)NC(=O)[C@H](CCC(=O)O)NC(C)=O)C(C)C)C1CCCCC1)C(=O)C(=O)NCC(=O)O` (stereo partly drawn) [Compound 69] (Ac-EEV[Chg][Tiq1c(1S)][X3]G-OH): the inhibition constant (Ki) was in the range of 1000 to 10000 nM. Turning to `C=CCNC(=O)C(=O)C(CCC)NC(=O)[C@@H]1CC2(CN1C(=O)C(NC(=O)C(NC(=O)C(CCC(=O)OC(C)(C)C)NC(=O)C(CCC(=O)O)NC(C)=O)C(C)C)C(C)C)SCCS2` (stereo partly drawn) [Compound 44] (Ac-[ξE][ξE](OtBu)[ξV][ξV][Pro(4,4-SCH2CH2S)][X3]-NHAllyl), the Ki was in the range of 1 to 100 nM. `CCCNC(=O)CNC(=O)C(=O)[C@H](CCC)NC(=O)[C@@H]1CCCN1C(=O)[C@@H](NC(=O)[C@@H](NC(=O)[C@H](CCC(=O)O)NC(=O)[C@H](CCC(=O)O)NC(C)=O)C(C)C)C(C)C` [Ac-EEVVP-nV-(CO)-G-Propylamide] (Ac-EEVVP[X1]G-NHPr): the inhibitory constant (Ki) is 1000 to 10000 nM.

As to `C=CCOC(=O)CNC(=O)C(=O)C(CCC)N1CC[C@H](NC(=O)[C@@H](NC(=O)[C@@H](NC(=O)[C@H](CCC(=O)O)NC(=O)[C@H](CCC(=O)O)NC(C)=O)C(C)C)C(C)C)C1=O` (stereo partly drawn) [Compound 47], the Ki is 1000 to 10000 nM. Consider `C=CCOC(=O)CNC(=O)C(=O)C(CCC)NC(=O)C(CC1CCCCC1)NC(=O)C(NC(=O)C(NC(=O)C(CCC(=O)O)NC(=O)C(CCC(=O)O)NC(C)=O)C(C)C)C1CCCCC1` (stereo not drawn) [Compound 81] (Ac-EEV[Chg][Cha][X3]G-OAll; configuration not given here), for which the inhibition constant (Ki) fell in the range of 1 to 100 nM. `CCC[C@H](NC(=O)[C@@H]1CCCN1C(=O)[C@@H](NC(=O)[C@@H](NC(=O)[C@H](CCC(=O)O)NC(=O)[C@H](CCC(=O)O)NC(C)=O)C(C)C)C(C)C)C(=O)C(N)=O` [Ac-EEVVP-nV-(CO)-Am, Ac-Glu-Glu-Val-Val-Pro-nVal-(CO)-CONH2] (Ac-EEVVP-X10): the inhibition constant (Ki) was 101 to 999 nM.
